Experimental data reported in the supplement of paper PMC3334620.
Over roughly 33,000 sequences, “E-score (-0.5 to 0.5)” has its median near -0.036; the highest 2% begin near 0.37. This is one part of the list.

Each sequence was assayed against T1, Yer064c (UniProt P40041) (assay: PBM E-score (8-mer binding enrichment) (E-score (-0.5 to 0.5)); higher = stronger / more preferred TF binding; most listed sequences are background and not binding sites). Conditions: protein concentration: 200 nM; construct: GST-full length.
T1 sequence: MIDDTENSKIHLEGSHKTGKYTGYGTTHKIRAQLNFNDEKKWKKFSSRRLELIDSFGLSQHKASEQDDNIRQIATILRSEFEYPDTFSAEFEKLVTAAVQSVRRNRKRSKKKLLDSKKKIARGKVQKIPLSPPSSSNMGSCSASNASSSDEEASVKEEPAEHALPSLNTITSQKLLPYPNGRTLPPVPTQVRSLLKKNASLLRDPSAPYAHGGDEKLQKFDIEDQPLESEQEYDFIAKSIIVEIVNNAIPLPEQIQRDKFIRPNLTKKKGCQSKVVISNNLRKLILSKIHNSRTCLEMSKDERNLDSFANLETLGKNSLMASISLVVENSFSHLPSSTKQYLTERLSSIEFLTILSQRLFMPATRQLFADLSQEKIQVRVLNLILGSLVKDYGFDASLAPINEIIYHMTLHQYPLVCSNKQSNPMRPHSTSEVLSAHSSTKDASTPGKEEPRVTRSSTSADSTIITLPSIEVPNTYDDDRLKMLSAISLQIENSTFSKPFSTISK
Summary of the method: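 Each ungapped eight-base word and its reverse complement, pooled, received an E-score from the Universal PBM Analysis Suite. Underlying scans, normalised with masliner, recorded fluorescent anti-GST bound to GST-tagged yeast transcription factors. These were applied at about 100-200 nM to universal all-10-mer Agilent arrays double-stranded by primer extension.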

Row | Sequence | PBM E-score
1 | ATGTTCAG | -0.118
2 | ACAAGAGT | 0.149
3 | ATAAGAAG | -0.0359
4 | CTGACACA | 0.119
5 | CACTGTAA | 0.102
6 | AGCAACAG | -0.261
7 | CGCGTCTA | -0.228
8 | GCTCCGGA | -0.324
9 | ACGGTCTA | -0.106
10 | TGCTTACA | 0.0748
11 | GCACGGAC | -0.225
12 | ACGTATTG | -0.0591
13 | AGACCCCA | -0.174
14 | ACCGGAGG | -0.294
15 | ACGGATCG | -0.0973
16 | ACAGAGGA | -0.129
17 | ATGAGACG | 0.0866
18 | TGAGCCCA | -0.021
19 | AGGATCGG | -0.209
20 | AGACCCGC | -0.156
21 | GATCAGCA | 0.0466
22 | TAAATCAA | 0.236
23 | CAGTTCGC | 0.0152
24 | GAAATCAA | 0.0858
25 | AATAAAGC | -0.0941

Row | Sequence | PBM E-score
26 | CATATTGG | -0.027
27 | CTTGGCGC | -0.0911
28 | CGATAGAA | -0.145
29 | ACGACGGA | -0.109
30 | CAGGGAGA | -0.0256
31 | TACCTCTA | -0.00282
32 | CTCCGAGA | -0.0556
33 | AAGTTGGG | -0.113
34 | AACTCTGC | 0.0728
35 | ATTTCGCG | 0.0653
36 | GGAAACTA | 0.0413
37 | ATTTCAAC | -0.0239
38 | CGAGGCAG | -0.189
39 | TCATGCGA | 0.285
40 | ATTCGTTC | -0.0142
41 | GAAAACTC | -0.164
42 | CTGAGATC | -0.0614
43 | AGAAGGAC | 0.033
44 | ATCTGAGC | 0.0723
45 | GGCCCGCC | -0.323
46 | CAGTCTTA | 0.278
47 | GTTCATTA | -0.0225
48 | GTTTAGAA | -0.0338
49 | GAGACCCA | -0.0361
50 | ACCAGGTG | -0.134

Row | Sequence | PBM E-score
51 | AACTAAGC | 0.0808
52 | CATTGCTC | -0.115
53 | GAAAATAA | 0.133
54 | CCACAGGG | -0.0842
55 | CTGGCGAA | 0.102
56 | AAGTCGAG | -0.16
57 | AGAAGGTA | -0.075
58 | AGTTGAGC | -0.0945
59 | CCTATGAC | 0.235
60 | CGTGGTCC | -0.0172
61 | ATCAGTGA | 0.187
62 | GGAGTTAA | 0.179
63 | AAAATGCT | -0.105
64 | CGATGTCC | -0.28
65 | CACGTCAG | -0.0619
66 | ATAACTAA | 0.16
67 | ATGTTTAC | 0.0611
68 | ACTGGTCC | -0.143
69 | CGTAGGAG | -0.156
70 | TCCATCAA | 0.105
71 | GGAGGTGA | 0.157
72 | AAACCTTG | 0.033
73 | GGCATTAA | -0.11
74 | GGCTGCAC | -0.0499
75 | GATGCTTA | -0.252

Row | Sequence | PBM E-score
76 | AGTCAACC | 0.442
77 | GCGCAGAA | -0.0381
78 | AAGTATCT | 0.0137
79 | CGCTCAAC | 0.0366
80 | AGCAGGAT | -0.127
81 | ACCCCCGC | -0.252
82 | ACATTCGA | 0.0721
83 | ATAATAAT | 0.0393
84 | GTTGGGAA | -0.144
85 | GAACAGAC | -0.0212
86 | AGCCGGGC | -0.283
87 | GGGATATA | -0.188
88 | GAGCAGGC | -0.327
89 | TAGGCCAA | -0.0706
90 | ATCATAAG | 0.335
91 | AGCCCCGA | -0.136
92 | ATTCGATC | 0.0729
93 | GTGGGTAA | 0.146
94 | GACAGGCA | -0.0768
95 | ACTGAAGT | 0.138
96 | CACGCGCC | 0.0221
97 | AAAGTATT | 0.00238
98 | CGGTGTAA | -0.0218
99 | GGTATAGA | -0.00589
100 | TTATGGAA | -0.132

Row | Sequence | PBM E-score
101 | GTCAGAGA | 0.0876
102 | ATGCAAAC | -0.21
103 | ATTGACGA | 0.188
104 | ACTTTTAC | 0.0747
105 | CAGCCTGA | 0.223
106 | CCCATAAA | -0.101
107 | ACAGGAGT | 0.203
108 | AGCACGGC | -0.328
109 | ACTTAGAA | 0.175
110 | ATCCAATC | 0.0332
111 | GAGTCCCC | 0.32
112 | TACGCTGA | 0.158
113 | AGAAATAA | 0.101
114 | AATGGTGA | 0.176
115 | GCCATAGA | -0.237
116 | CGGGCTGA | -0.0144
117 | AGACTTAA | 0.195
118 | AATCTTAA | 0.244
119 | CGGCGAAA | -0.0549
120 | AAACAATG | 0.114
121 | AATAAATG | 0.0102
122 | CGCCTGTA | -0.26
123 | ATCCGGAG | 0.064
124 | CATGTCTA | 0.205
125 | AGAAGTCG | 0.207

Row | Sequence | PBM E-score
126 | GTGGGCTA | -0.0478
127 | CCCACCGG | -0.0911
128 | GTGGATGA | 0.271
129 | ACATGCAT | 0.0041
130 | AAGCCGTC | -0.255
131 | GAACCTGC | -0.176
132 | AGATTTAC | -0.00289
133 | ACTGTCAT | 0.162
134 | AAGAACAA | -0.0609
135 | GGAGAGAA | -0.112
136 | AAACAGGC | -0.16
137 | ATGGTACC | -0.315
138 | TGCACACA | 0.00784
139 | CTTCGATC | -0.103
140 | CACAACGG | -0.124
141 | CATGGCCG | -0.31
142 | GATCCGTA | -0.117
143 | CCTTGAGC | -0.118
144 | ATGGAAGG | -0.152
145 | CAAGAATA | 0.00612
146 | ATCTACGC | -0.0396
147 | TAAAAGAA | 0.0221
148 | TGGTAGAA | -0.0551
149 | CCCTACCG | -0.0224
150 | CATACTGC | -0.0757

Row | Sequence | PBM E-score
151 | CAGGCGGG | -0.325
152 | AGTGGCAC | -0.211
153 | CGGTAACC | -0.0716
154 | ACAGTCAT | 0.453
155 | AACAGTCA | 0.384
156 | ACCGCTCC | -0.173
157 | ATGAAGAG | -0.00039
158 | GTTCAAAC | 0.153
159 | CTTCGAAA | 0.0288
160 | AAGTGAGG | -0.0214
161 | CCATGCCC | -0.198
162 | CTCACGCA | 0.178
163 | CCTGGATC | -0.135
164 | CTGCGCAG | -0.283
165 | ATCTTCTC | 0.0141
166 | CGAACCTA | -0.114
167 | ACCCGCAA | -0.191
168 | ACTTGTTA | 0.0293
169 | ATTATAAC | -0.00089
170 | CTGGGCCA | -0.23
171 | GCGACTGA | 0.31
172 | GTGTTAGA | -0.03
173 | AGGAGTCG | 0.375
174 | ATGCCAAC | -0.162
175 | CAACGATA | -0.077

Row | Sequence | PBM E-score
176 | AAATCTAG | 0.0437
177 | CAGCACAG | -0.049
178 | AGATCCGC | -0.0379
179 | ATTAGTGC | 0.0572
180 | TCAGGCGA | 0.043
181 | GCTGGCAA | -0.065
182 | GAACAATA | 0.0785
183 | CACAGCGG | -0.0138
184 | AATAGGGA | -0.212
185 | CAGAAGAG | -0.0116
186 | ATTCCGTG | 0.105
187 | ACTATCTA | 0.21
188 | AGGAAGAT | -0.0954
189 | GAGAAGAC | 0.0453
190 | AAATTTGT | 0.105
191 | CCGTCGCG | -0.0591
192 | GGTGTTTA | -0.0575
193 | GAGCAAGA | 0.121
194 | CAGCCTCG | 0.0424
195 | GTTCGGGA | 0.0106
196 | CCGAGAGG | -0.13
197 | AGAATGTG | 0.00651
198 | CCTGCCCG | -0.12
199 | GTGAGATA | -0.00683
200 | CTTTACCA | -0.0281

Row | Sequence | PBM E-score
201 | CCGTGCCG | -0.101
202 | ATCCGAGC | -0.105
203 | CCACGAAG | 0.0637
204 | CACGCCAG | -0.106
205 | AGACTAAA | 0.398
206 | CGTACAAA | 0.188
207 | AGCGAAAG | -0.163
208 | ACCGCTAA | -0.0206
209 | CATTATCA | 0.129
210 | AGACAATA | -0.0356
211 | GCGAGAGC | -0.0885
212 | AATTTAAT | 0.213
213 | AATTTGCT | -0.0149
214 | CAAATGCA | -0.0683
215 | GCAAATGA | 0.0199
216 | CGAAAGAG | -0.00033
217 | TAGTATGA | 0.221
218 | CCGAGCCA | -0.077
219 | AAGTGATC | 0.103
